We go through 3 molecules from patent publication US20240042021A1 (FLAGSHIP PIONEERING INNOVATIONS VII, published 2024).

The chains are these.
T1: human IL-10 Receptor (hIL-10R) (human, UniProt Q13651 22-578; Q08334 20-325)
T1 sequence 1: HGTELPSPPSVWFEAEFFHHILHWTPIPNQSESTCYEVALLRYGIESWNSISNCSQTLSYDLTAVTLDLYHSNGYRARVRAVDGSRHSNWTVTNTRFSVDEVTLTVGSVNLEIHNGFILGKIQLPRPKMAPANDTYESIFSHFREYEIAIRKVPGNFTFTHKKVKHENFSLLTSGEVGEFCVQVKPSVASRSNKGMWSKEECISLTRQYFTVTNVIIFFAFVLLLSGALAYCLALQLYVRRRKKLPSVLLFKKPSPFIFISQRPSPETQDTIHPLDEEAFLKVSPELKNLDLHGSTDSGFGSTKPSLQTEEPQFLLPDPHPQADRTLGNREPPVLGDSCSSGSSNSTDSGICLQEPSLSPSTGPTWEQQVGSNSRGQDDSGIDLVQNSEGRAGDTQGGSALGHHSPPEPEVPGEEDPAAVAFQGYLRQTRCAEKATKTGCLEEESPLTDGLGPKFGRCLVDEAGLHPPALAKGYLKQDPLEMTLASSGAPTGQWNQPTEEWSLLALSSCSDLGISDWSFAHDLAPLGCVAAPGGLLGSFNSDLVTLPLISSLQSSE
T1 sequence 2: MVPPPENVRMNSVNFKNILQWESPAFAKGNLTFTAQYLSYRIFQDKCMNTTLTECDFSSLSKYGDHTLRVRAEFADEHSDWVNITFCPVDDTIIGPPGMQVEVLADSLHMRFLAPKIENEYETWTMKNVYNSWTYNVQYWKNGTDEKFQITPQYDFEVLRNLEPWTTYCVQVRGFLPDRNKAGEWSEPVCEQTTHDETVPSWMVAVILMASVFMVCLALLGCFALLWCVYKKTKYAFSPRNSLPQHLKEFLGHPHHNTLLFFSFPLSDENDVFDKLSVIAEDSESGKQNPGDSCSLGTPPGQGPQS

B1: Immunomodulatory fusion protein 3 (IFP-3) (Fc fusion)
chain: [not shown - human IgG4 Fc with S228P F234A L235A (EU numbers) and a few adjoining residues]GGGGGGGSGGGGSGGGGSMSNNKILVCAVIILTYTLYTDAYCVEYAESDEDRQQCSSSSNFPASLPHMLRELRAAFGKVKTFFQMKDQLNSMLLTQSLLDDFKGYLGCQALSEMIQFYLEEVMPQAENHGPDIKEHVNSLGEKLKTLRLRLRRCHRFLPCENKSKAVEQVKRVFNMLQERGVYKAMSEFDIFINYIESYMTTKM
B2: Immunomodulatory fusion protein 11 (IFP-11) (Fc fusion)
chain: [not shown - human IgG4 Fc with S228P F234A L235A (EU numbers) and a few adjoining residues]GGGGGGGSGGGGSGGGGSMRRRRSFGIVVAGAIGTLLMMAVVVFSAHEHKEVPPACDPVHGNLAGIFKELRATYASIREGLQKKDTVYYTSLFNDRVLQEMLSPMGCRVTNELMEHYLDGVLPRALHLDYDNSTLNGLHAFASSMQALYQHMLKCPALACTGKTPAWMYFLEVEHKLNPWRGTAKAAAEADLLLNYLETFLLQF
B3: Immunomodulatory fusion protein 2 (IFP-2) (Fc fusion)
chain: [not shown - human IgG4 Fc with S228P F234A L235A (EU numbers) and a few adjoining residues]GGGGGGGSGGGGSGGGGSMARRLTVASCGSVSLLAAFAAVLLIGCQLESGEALPLGSRSADSRSVDGQRVPAPQNNYPGLLRDLRLGYEGFKQKVTDSHPDETLLGSSRLAGDLKGPLRCQALSEMIQFLLQVVLPDAENSRQDLRSQFSTLGDRITGLRQQLRRDPTVFPCESRSDGVSDLRSAYTRLGSTGAEKVLSEFDIFINYIEAYVTSV

This experiment concerns the target T1, human IL-10 Receptor (hIL-10R). The experiment in a line: cell-based or functional assay.
On to B1, for which the “~Average EC50 Fold Difference Relative to Reference Fc-hIL-10” value is < 1 fold.

Turning to B2, the “~Average EC50 Fold Difference Relative to Reference Fc-hIL-10” value was > 100 fold.

For B3, the “~Average EC50 Fold Difference Relative to Reference Fc-hIL-10” value was < 1 fold.
